Source: PubChem BioAssay AID504832 (National Center for Advancing Translational Sciences (NCATS), 2011)
The campaign covered roughly 310,000 compounds. About 18,000 (5.8%) were called active. Inconclusive results, whose numbers are uncertain, are shown with a selection of clear calls. The call rests on the fitted dose curve; in most records, active means well fitted inhibition curve with a large enough effect; inconclusive means small, poorly fitted or top-dose-only effect, or another doubt; inactive means no such curve, though single readings can be large or run the other way. No potency is given beside an inconclusive call; the fits are too rough.

test: Primary qHTS for delayed death inhibitors of the malarial parasite plastid, 48 hour incubation; conditions: P. falciparum luciferase growth in erythrocytes; series mostly up to 28.7 µM
In short: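 Read-out is firefly luciferase luminescence from an integrated reporter in P. falciparum, so falling signal marks reduced parasite growth. Infected erythrocytes were at 2% hematocrit and 0.1% parasitemia (final) in Albumax-supplemented RPMI 1640.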
Potency means the concentration at half of the fitted maximal effect; tags describe the fitted curve by direction and shape.

Structure (SMILES) | Potency
CCCn1cc(S(=O)(=O)CC(=O)Nc2ccc(OCC)cc2)c2ccccc21 | active: 13.1 µM
CCOC(=O)C1CCCc2c1[nH]c1c(C(=O)O)cccc21 (stereo unspecified) | inactive
CCC(C)(C)n1nnnc1C(c1cc2ccc(OC)cc2[nH]c1=O)N1CCc2ccccc21 (stereo unspecified) | active: 5.22 µM
CCOC(=O)c1c(C)[nH]c(C(=O)OCC(=O)Nc2cc(C)nn2-c2ccccc2)c1C | inconclusive [inhibitor, partial curve, poor fit]
C=CCN(Cc1ccco1)S(=O)(=O)c1ccc(Cl)cc1 | inactive
CC(C)(C)NC(=O)CN(Cc1cccs1)C(=O)C1COc2ccccc2O1 (stereo unspecified) | inconclusive [inhibitor, partial curve, poor fit]
COc1ccc(CCNC(=S)Nc2cccc(C)c2C)cc1 | inconclusive [inhibitor, single point]
CCn1c(C)nc2cc(C(=O)NNC(=S)NC(=O)c3ccccc3)ccc21 | inactive
Cc1ccc(Sc2ccc([N+](=O)[O-])cc2[N+](=O)[O-])nc1 | inconclusive [inhibitor, partial curve, poor fit]
CCCCCCC(=O)O[C@H]1CC[C@H]2[C@@H]3CCC4CC(=O)C=C(C)[C@]4(C)[C@H]3CC[C@]12C (stereo partly specified) | active: 4.78 µM
CCOC(=O)C1CCN(c2cc3c(cc2NC(=O)c2ccccc2)n(C)c(=O)n3C)CC1 | inconclusive [inhibitor, partial curve]
COc1ccc(N(CC(=O)Nc2ccccc2C(=O)N2CCCC2)S(=O)(=O)c2ccccc2)cc1 | inconclusive [inhibitor, partial curve]
CC(C)(C)C(=O)N1CCN(c2ccc([N+](=O)[O-])cc2-n2cccc2)CC1 | inconclusive [inhibitor, single point]
COc1ccc(NC(=O)CSc2nnc(C3CC3)n2-c2ccccc2)cc1 | inconclusive [inhibitor, partial curve, poor fit]
Cc1ccc(OCC(=O)N/N=C\c2c(C)n(C)c3ccccc23)c([N+](=O)[O-])c1 | inconclusive [inhibitor, single point]
Cc1cccc(N/N=C/c2ccccc2O)c1 | inconclusive [inhibitor, single point]
O=C(CCC(=O)N1CCCC1)N1CCCC1 | inactive
CCOC(=O)NC(=O)/C(C#N)=N\Nc1cccc(OC)c1 | inactive
COCCNC(=O)/C(C#N)=C/c1ccc(-c2ccc(OC)cc2[N+](=O)[O-])o1 | inactive
Cc1cc(-c2c(C)[nH]n(-c3ccc(Cl)cc3)c2=O)n[nH]1 | inconclusive [inhibitor, single point]
COc1cc(/C=C/C(=O)OCC(=O)Nc2c(C)n(C)n(-c3ccccc3)c2=O)ccc1OCC#N | inconclusive [inhibitor, single point]
Cc1nc2c(Cl)cccc2[nH]1 | inactive
COc1ccc(C(=O)c2nc3ccccc3n2C(C)C)cc1 | inactive

Structure (SMILES) | Potency
O=C(c1ccccc1F)N1CCN(CC2CC3C=CC2C3)CC1 (stereo unspecified) | inconclusive [inhibitor, full curve, poor fit]
CCc1ccccc1N(C(=O)c1snc(C(N)=O)c1N)C(C(=O)NCC1CCCO1)c1c[nH]c2ccccc12 (stereo unspecified) | inconclusive [inhibitor, full curve]
CC1CCN(CCC(=O)Nc2nccs2)CC1 | inactive
CC1(C)C=C(c2ccc(C=O)s2)CC(C)(C)N1 | inconclusive [inhibitor, partial curve, poor fit]
Cc1cc(C)cc(NC(=O)c2cccnc2)c1 | inactive
Cc1ccc(S(=O)(=O)N2[C@@H](c3cccc(Cl)c3)C(C(=O)O)=CC[C@H]2c2cccc(Cl)c2)cc1 | inconclusive [inhibitor, single point]
COc1cccc(/C=N\n2c(C)nnc2C)c1OC | inactive
COc1ccccc1CNC(=O)CN1C(=O)NC(c2ccccc2)(c2ccc(C)c(C)c2)C1=O (stereo unspecified) | active: 9.28 µM
CCOC(=O)c1c(-c2ccccc2Cl)csc1NC(=O)CSc1nc(C)cc(=O)[nH]1 | inactive
O=C(COc1cc(Cl)c(Cl)cc1Cl)Nc1ccncc1 | inconclusive [inhibitor, single point]
COc1ccccc1NC(=S)NC1CCCCC1 | inactive
O=C(O)c1ccccc1C(=O)Nc1ccc(Br)c(C(F)(F)F)c1 | inactive
O=C1Nc2cc(C(=O)NCCCN3CCCC3)ccc2S/C1=C/c1ccccc1F | inconclusive [inhibitor, full curve, poor fit]
COc1ccccc1NC(=S)NCCc1ccc(F)cc1 | inconclusive [inhibitor, single point]
Cc1cccc(N2CCN(C(=O)c3ccc4c(c3)NC(=O)C(CSCc3ccc(F)cc3)N4)CC2C)c1 (stereo unspecified) | inconclusive [inhibitor, partial curve, poor fit]
CCOc1cc(/C=N/NC(=O)c2ccc(CN3CCOCC3)cc2)ccc1OCc1ccccc1 | inconclusive [inhibitor, single point]
Nc1nonc1C(=O)NCCNCc1ccccc1OCc1ccc(F)cc1 | inconclusive [inhibitor, partial curve, poor fit]
COc1ccc2nc(S(=O)Cc3ncc(C)c(OC)c3C)[nH]c2c1 (stereo unspecified) | active: 11.7 µM
O=C(COc1ccccc1[N+](=O)[O-])N1CCN(c2ccccn2)CC1 | inactive
COc1ccc(Cl)cc1-n1c(N)c(C(N)=O)sc1=S | inconclusive [inhibitor, full curve, poor fit]
CCOC(=O)c1cnc(SCC(=O)Nc2cc(C(F)(F)F)ccc2N2CCOCC2)nc1N | inconclusive [inhibitor, full curve, poor fit]
COc1ccc(-c2cc(-c3cccs3)c(C#N)c(SCC(=O)NCc3ccccc3OC)n2)cc1 | active: 2.33 µM
CCN(c1ccccc1)S(=O)(=O)c1ccc(OCC(=O)Nc2cc(C)on2)cc1 | inconclusive [inhibitor, single point]
